Results on 29 molecules are retold here after the supplement of paper PMC12632987.

Over roughly 4,500 sequences, “median log2 fold change of GCK-ALFA target abundance (FLAG IP / Myc IP barcode read proportion)” has its median near 0.078; the lowest 2% begin near -0.6. This is one part of the list.

B1: GBRAP_95_7040 (protein)
chain: DDLVLAVESLAEVVEGLVELGDEEAAKKAAKRLLEAIKEAKPDKVKIELSKETAKLIIEVAKKTLSKEEAIEILEKLAEFATNEEVKELFLKAAEELKKE
B2: GBRAP_137_3635 (protein)
chain: AKVTIETETIGDVVEITVTFDDPEKAEEVAEMLLDIAHEKGALAVSIEIKENGVLEAVIWVPKEKAEELIKAIVKALTEKFGADVTIINKDTGEVKEIKA
B3: GBRAP_160_4487 (protein)
chain: MEKVEEAKREVEELIELMVESIKESPPSQRLPIARAYAGDIAQTVYEHGLVDDEQFEELLELVEELAEEIVRASEEGPEAMEEAAERLREEVARFIEEVS
B4: GBRAP_184_5113 (protein)
chain: KTLEFEIKVENVEEAKKKLEEAVKKAVEEKANLLVIVEVKNATVELAKAIVEKLAEAKKAGIKNVTALLESDNITEEVIDAAIEKAKELGIDNLVIATKE
B5: GBRAP_80_6823 (protein)
chain: AEERLKEVLEELKEVDPEIAEIVKELIEIARELGVSLEDLARAAEAVLELAKLDKEKAREIVKEALEELKKAKERGDLAEATAIVYDLESDALLAAEELE
B6: GBRAP_166_4918 (protein)
chain: SMEEIVEEAEERLREVIREERADPRMTPEQITVAMADELAEILDEVEDEETKMAIVERGLKIAKEEGLDPERLAKLTAGLYGFSDEEEEEIEKIVKEILK
B7: GBRAP_52_6328 (protein)
chain: SEEKVRELAEKLVAAIEAGDEEKAKELAEKAVKELSSEEILELARIVAEKVATKDDATKERAAEVFDYLAELVIEEHGDEKTAAEILGIYARTLYAAEQA
B8: GBRAP_53_6418 (protein)
chain: MEEKKKKLKEEILKLAKEAGKADEEEQLKLTKEIIKLLKEAKEAGMSDEELTKLAKEVAKLLKEAGASDSALVELAKGLAELGLEEATAEVVELIVEDLE
B9: GBRAP_14_3786 (protein)
chain: MEKKLELLEKAKEEIKEEAAKIAPAKADELNAAIDEIFKETKEEIKKTGDAVKAVEEARERLLARFREILADEPEIVRAALLAAVDNILTELELELEELE
B10: GBRAP_14_3868 (protein)
chain: KEKALEIVEEAIDEAAAELKKAFPEEAARIDAVAAEIREYARELLESEEDIEEAMEKIREHALALTAEAFADLPPEDQAAALTIVDDEFLEAELEIEEEL
B11: GBRAP_35_5530 (protein)
chain: ATDEEITDWLVATIDDLVLALPDMPVDTALAAGTSIARAAREVAKEVKDNKEALEKILEAMRRLAEALAARAEEDPRMQPALDLARAVVEEIEKLLKEAE
B12: GBRAP_160_4454 (protein)
chain: SERLEKLLKEIDEIREEAIKLIEGETHEQRVVIVEGLFGEFVMTLVSDDSISDELEDEVAAEVDELIDTLRANPDLTEEEIKELIKETAEKIKEILKEKL
B13: GBRAP_125_3135 (protein)
chain: RREALLALAEALARLFGFSEEEIAEIREIAEAHDPAQTIVAIYLAAGFEELAELADEVLDKLTEEEIAELRDLALASRDLPLEEAEAALLAKLKELKAKL
B14: GBRAP_11_2852 (protein)
chain: KKEKLEKILKAAQAAIATVDALIAAGTTDAALQAQTKKKLEELKELVKEYGDENLIELVEEAQAAFEEAAADPANRAQYYNEALAFLRALEGEVLLKLEE
B15: GBRAP_184_5063 (protein)
chain: KTYEAEIEVTNLEEAKAKMAALAEEIKDFKGNLIVQLFLPEFDREIVETVLDQLAAIKAAGYAKKITLGIDADTTEEDVDFLVSKADALGINVVVALREE
B16: GBRAP_14_3815 (protein)
chain: KEELIKEINKILEELRDELVNLLGLPEEEVTKLVEEAKKKIEEAILTKENPEEEIEKIMEELRKEVAKLAAKLGADVAAAAEALVTDAEYEILELIEEKK
B17: GBRAP_166_4910 (protein)
chain: SLEELVERAKARIRALVAAMPAADAAGRLELAIEIAELLEELREAGASEEQLDEAWRALAEALKEAGLDVEREVARVAAAAGFDEEEVERVDAIVAEVLA
B18: GBRAP_184_5098 (protein)
chain: KVLVAKIKAKTLEEAKKKAYEVLDKAAKEGANLIILFELENISEEEIAELVEEVGKRAKELGIPNVTLGIENDLSEETIDKLIEIADKLGIKLVVAIPEE
B19: GBRAP_52_5944 (protein)
chain: SEARVRALAEAFVAAAAAGDTEKARAILLQAAKELNDEEWRLFAAALAELLATADLETIERVLEIVLESADELEALGVSEEQIGDLEAAIARAGAAALAA
B20: GBRAP_52_5986 (protein)
chain: MKEEAKKIAEELVKLMLEGKEEEAEKLMKEIAENKSQEFILMVMEELAKMAKTATPEEVDAIVDTALMLGDIALEAGFDEAEIDDAEARVAAAAVENLKK
B21: GBRAP_45_5803 (protein)
chain: MSPLEQELAAALAALDRAIALVEANEALPAERRAAYIAELEALRARLKAHPRDAAALDELAAELEALLKRLLADPEATAETIEAVLDALNHVLDARELLK
B22: GBRAP_35_5559 (protein)
chain: EFDEEVVEMMTNTAEDALLAVEDVPVDTLIAITTSIAKAALKILKEEKENKEGMGKLGKAMLELLDAAIKKAKEEGAPQEKIEELEKLRKEIEEALKEIE
B23: GBRAP_160_4246 (protein)
chain: KERLERIREELEDEAEVLLELLLEVPASQRAAYARAAAGNMVRIVEEEPEMSDETVEEVDELADAMAARLVAAADASPEELRALLREGVEEIVEAVEEGL
B24: GBRAP_137_3661 (protein)
chain: MKIEVNAKLEGDFGEVEIKAENKETAEEAEDIAIDVARETGVAAAISLDKEEKTVYVDLIGTPEQLRAFLDKLLERLSKKYDVDATIEEDGKTTKKKLKK
B25: GBRAP_184_5340 (protein)
chain: KTLEVHIPNSSLEEIIKEFEKAAKKAAAEGANLLVTVDAEGFSAEEVVELLEKLGEIAKKEGLKDVTVDIDQELTEEEADKVIEVADKYGIRLTVPLKDE
B26: GBRAP_39_5636 (protein)
chain: SEAEEAEETYSYLEALGAKLLYDSGLSLDELLARERAAALAAFADDPELQALLAELEALAAASDELDRLALVGAMHRATEGAPREEVRRDLELLIARLKA
B27: GBRAP_184_5299 (protein)
chain: KVEHVFIEADTAEEAIEQIEKLAEEAKKKGVKLSLYLSLKNVSVEGFKKIAEHLKELKEEGIIEDAVVHIEDDLSEEERDEFIKIADEAGVKLVLALSDE
B28: GBRAP_128_3226 (protein)
chain: STEELEERVRELLERIKEADEEEARRLARELARLIAEASVEEAEAMAEVVEELAPELSEEQLEILIDAFEEEARATDSEVALVLRDIAIIFGEELLEKEE
B29: GBRAP_117_2573 (protein)
chain: EELKKKAKEEVDKFVEDLAARLKEMKTLSPEEQAAALAQMQEETYKLLKKLIKELGKDETLELFDEAISKLDAEDYFAISTIVEDAFNRIEEEEEKEKAA

The target in this assay is GABARAP, O95166. Nature of the assay: median log2 fold change of GCK-ALFA target abundance (FLAG IP / Myc IP barcode read proportion) (log2 ratio); each designed protein is fused to an ALFA-tag nanobody in HEK293 cells to bring the named protein to FLAG-tagged glucokinase (GCK); Myc marks an untargeted standard; higher = target protein stabilised (more abundant). Particulars: target protein: 3xFLAG-MCP-GCK-ALFA reporter; HEK293 landing pad (RPLP). The gist of the method: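 Sequencing of reverse-transcribed, amplified circular RNA barcodes from anti-FLAG and anti-Myc immunoprecipitates provided the readout for an ALFA-nanobody-fused binder library recombined into HEK293 landing-pad cells. Those cells were induced with 2 μg mL^−1 doxycycline, transfected with a plasmid expressing a FLAG-tagged target and a Myc-tagged standard, and lysed after 48 h. Target abundance is the per-binder median log2 ratio of FLAG to Myc barcode read proportions. Only barcodes at a proportion of ≥10^−7 in both replicates and binders with ≥3 barcodes per replicate were kept, with a 10^−6 pseudocount added before the two replicates were pooled.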
Chain of GABARAP, O95166 (O95166 whole entry, the tested form may be a part): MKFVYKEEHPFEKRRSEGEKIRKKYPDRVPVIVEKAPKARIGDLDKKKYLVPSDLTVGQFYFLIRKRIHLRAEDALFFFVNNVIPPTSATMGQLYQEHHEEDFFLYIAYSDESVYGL
For B1, the “median log2 fold change” value worked out at 0.24.
B2: the “median log2 fold change” value is -0.022.
As for B3, the “median log2 fold change” value is -0.0375.
Take B4: the “median log2 fold change” value was 0.27.
The figure for B5 is 0.254; for B6 it is 0.0961; for B7 it is 0.193.
For B8, the “median log2 fold change” value amounted to 0.136.
Consider B9, for which the “median log2 fold change” value stood at 0.412.
As to B10, the “median log2 fold change” value was -0.151.
The figure for B11 is 0.202; for B12 it is 0.115; for B13 it is -0.346.
For the molecule B14, the “median log2 fold change” value came out at 0.223.
Under B15 stands 0.122; under B16, 0.113.
The figure for B17 is 0.271; for B18 it is -0.0804.
On to B19, for which the “median log2 fold change” value was -0.227.
B20: the “median log2 fold change” value was -0.152.
Under B21 stands 0.166; under B22, -0.034.
Under B23 stands -0.171; under B24, -0.0391; under B25, 0.166.
The figure for B26 is 0.198.
On to B27, for which the “median log2 fold change” value was -0.0173.
Under B28 stands -0.17.
Under B29 stands 0.24.
